The full ranking holds about 18,000 sequences; the median of “TetR repression strength (sort-seq, GFP reporter)” is about 0.23, and the highest 2% start at about 0.68. Some of the results follow.
Each sequence was assayed against TetR (class B, Tn10) (UniProt P04483) (assay: TetR repression strength (sort-seq, GFP reporter) (relative to tetO2 = 1); higher = stronger repression). Conditions: E. coli.
Summary of the method: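 Three independent transformations of E. coli SIG10-MAX were made with a low-copy plasmid library randomizing eight operator positions between a constitutive promoter and sfGFP, with constitutive TetR. Following 5 h at 37 °C in LB plus 50 µg/mL chloramphenicol, 10^6 cells went through FACS into 13 fluorescence bins, and each bin was sequenced by Illumina. Repression strength was defined as the top bin index plus one minus the read-weighted mean bin, divided by the unaltered operator's value. Averages included only members reaching ≥30 reads in all replicates with a CV ≤0.5.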

Sequence of UniProt P04483 (P04483 whole entry): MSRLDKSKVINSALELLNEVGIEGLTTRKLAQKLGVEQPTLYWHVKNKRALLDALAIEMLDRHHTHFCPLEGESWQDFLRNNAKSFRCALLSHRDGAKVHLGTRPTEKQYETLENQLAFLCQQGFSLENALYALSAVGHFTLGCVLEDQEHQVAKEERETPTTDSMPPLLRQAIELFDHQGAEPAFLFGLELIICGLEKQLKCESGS

Sequence	TetR repression strength
TCCCGAAAAGTTAGTGAGA	0.417
TCCCAGGTAGTTTATGAGA	0.12
TCCCGTCTAGTATCGGAGA	0.308
TCCCAGAGAGTAGACGAGA	0.217
TCCCCATCAGTGGTGGAGA	0.127
TCCCTTAGAGTGCAAGAGA	0.415
TCCCTATCAGTGCCAGAGA	0.743
TCCCCTTTAGTGGTAGAGA	0.494
TCCCCAGCAGTTATGGAGA	0.249
TCCCGCCTAGTGATGGAGA	0.192
TCCCCTCGAGTTGGGGAGA	0.121
TCCCTACCAGTCGTCGAGA	0.368
TCCCTACAAGTGGGGGAGA	0.166
TCCCCCACAGTCCTAGAGA	0.412
TCCCGATGAGTGCAAGAGA	0.504
TCCCGTGCAGTCCGTGAGA	0.202
TCCCCTGCAGTGGATGAGA	0.258
TCCCGTGGAGTAGTCGAGA	0.47
TCCCGGAAAGTGATAGAGA	0.329
TCCCGTGAAGTGGGTGAGA	0.243
TCCCGGACAGTCACAGAGA	0.0968
TCCCGAGTAGTTTTAGAGA	0.213
TCCCATACAGTGGGGGAGA	0.236
TCCCCACAAGTGGGAGAGA	0.182
TCCCATCCAGTCGGGGAGA	0
TCCCTATAAGTTCATGAGA	0.35

Sequence	TetR repression strength
TCCCGCTGAGTCAGTGAGA	0.204
TCCCCATAAGTAAGCGAGA	0.53
TCCCCTTGAGTGATCGAGA	0.192
TCCCTCGTAGTGATGGAGA	0.143
TCCCTGATAGTGAACGAGA	0.211
TCCCGTTGAGTGGCGGAGA	0.237
TCCCCCCGAGTCGTGGAGA	0.28
TCCCACTGAGTGGAAGAGA	0.282
TCCCGAACAGTATAAGAGA	0.291
TCCCCGTCAGTGGCTGAGA	0.395
TCCCTGGAAGTAGGAGAGA	0.242
TCCCGAGGAGTAGCTGAGA	0.139
TCCCGGAGAGTTAATGAGA	0.225
TCCCGGGTAGTCTATGAGA	0
TCCCAGGTAGTGGGAGAGA	0.203
TCCCCTATAGTCGGAGAGA	0.175
TCCCCCCAAGTGCCAGAGA	0.415
TCCCGCCAAGTCCCTGAGA	0.389
TCCCTATCAGTTAATGAGA	0.655
TCCCGTACAGTGGTGGAGA	0.195
TCCCAGAGAGTACTCGAGA	0.276
TCCCGGACAGTGTGAGAGA	1.2
TCCCACAAAGTGGGTGAGA	0.155
TCCCCTCGAGTACAAGAGA	0.58
TCCCCTCGAGTGCTTGAGA	0.289
TCCCACGCAGTCCCTGAGA	0.23

Sequence	TetR repression strength
TCCCATATAGTAATTGAGA	0.168
TCCCGCGGAGTAACGGAGA	0.371
TCCCGTAAAGTGGGAGAGA	0.116
TCCCAGATAGTGTGCGAGA	0.228
TCCCCGGTAGTAAGCGAGA	0.445
TCCCGGTCAGTGGGCGAGA	0.335
TCCCGGACAGTTTCTGAGA	0.312
TCCCAATGAGTCGCGGAGA	0.246
TCCCCCAAAGTGAGAGAGA	0.323
TCCCATCGAGTTGCCGAGA	0.198
TCCCTTTGAGTTGGTGAGA	0.0109
TCCCGGGGAGTTACCGAGA	0.0398
TCCCGGGAAGTGGACGAGA	0.217
TCCCGGAGAGTCGTTGAGA	0.118
TCCCGCTCAGTTTGCGAGA	0.219
TCCCAACTAGTTCCAGAGA	0.457
TCCCCGATAGTGTATGAGA	0.553
TCCCGCACAGTCATCGAGA	0.3
TCCCATCAAGTGTTTGAGA	0.585
TCCCCTGAAGTATGGGAGA	0.208
TCCCGGAGAGTCCGGGAGA	0.254
TCCCGGTAAGTAAGAGAGA	0.0325
TCCCTGGTAGTATGCGAGA	0.138
TCCCTTACAGTTCATGAGA	0.298
TCCCAGGGAGTGGATGAGA	0.212
TCCCCGACAGTAATTGAGA	0.148

Sequence	TetR repression strength
TCCCGGTGAGTTTCTGAGA	0.486
TCCCTTCCAGTACACGAGA	0.387
TCCCTGAGAGTCTAGGAGA	0.199
TCCCATTTAGTGGGGGAGA	0.228
TCCCGATCAGTATCAGAGA	0.415
TCCCTTGAAGTCAAAGAGA	0.187
TCCCGTGCAGTAGACGAGA	0.299
TCCCCACAAGTGGGTGAGA	0.0622
TCCCGGATAGTGGTAGAGA	0.204
TCCCTGCAAGTGGTCGAGA	0.247
TCCCGGGAAGTGTGCGAGA	0.206
TCCCGAGTAGTCGCGGAGA	0.194
TCCCCTGGAGTGAGAGAGA	0.18
TCCCTAGGAGTCCCAGAGA	0.27
TCCCGATGAGTGGGGGAGA	0.435
TCCCTTCGAGTGGCTGAGA	0.376
TCCCATGTAGTTCGGGAGA	0.241
TCCCTTGGAGTGTGTGAGA	0.225
TCCCGTAGAGTGGCGGAGA	0.0664
TCCCCTTTAGTAGTTGAGA	0.166
TCCCCATGAGTGGTGGAGA	0.108
TCCCCTGTAGTCGTGGAGA	0.4
TCCCGTCTAGTCATAGAGA	0.227
TCCCGTCTAGTCGTGGAGA	0.446
TCCCATGCAGTGCGAGAGA	0.263
